This experiment concerns the target T1, His-SIRT6 (UniProt Q8N6T7).
T1 construct: Sirtuin 6 (SIRT6); source: bacteria, purified (Ni(II)-Sepharose)
The experiment can be described thus: pull-down; GST or GST fusion proteins on glutathione-Sepharose 4B beads incubated with purified His-tagged proteins in TEN buffer (10 mM Tris-HCl, pH 8.0, 1 mM EDTA, 100 mM NaCl), 4 h, 4 °C; blot with anti-His or anti-GST, Coomassie staining. The following applies: both partners purified.

B1: GST-p53 DNA-binding core domain, […] aa (domain or fragment)
chain: not shown
notes: also called p53 […] aa fragment; source: bacteria, purified (glutathione-Sepharose 4B)
As to B1, the binding result is recorded as “binds”.

B2: GST-p53 regulatory domain, […] aa (domain or fragment)
chain: not shown
notes: tumor suppressor p53, regulatory domain, […] of the 393 aa protein; also called p53 […] fragment; source: bacteria, purified (glutathione-Sepharose 4B)
Regarding B2, the binding result is given as “binds”.

The values are drawn from PMC6148051, “p53 cooperates with SIRT6 to regulate cardiolipin de novo biosynthesis” (Cell Death & Disease, 2018).
